# Source: PubChem BioAssay AID1347165 (National Center for Advancing Translational Sciences (NCATS), 2019)
# Out of some 220,000 compounds screened, about 5,700 (2.6%) were called active. The inconclusive results got no clear call from the source; some entries with a clear call stand among them for comparison. The call rests on the fitted dose curve; in most records, active means well fitted inhibition curve with a large enough effect; inconclusive means small, poorly fitted or top-dose-only effect; inactive means no such curve, though single readings can be large or run the other way. A potency beside an inconclusive call is a rough fit, not a confirmed value.
# Target: Lysine-specific demethylase 5B (Homo sapiens) (UniProt Q9UGL1)
# Assay: Primary screen for KDM5B Histone Demethylases FDH-coupled qHTS; further: nearly all actives have a fitted effect of over 70% in size
# Details: FDH-coupled NADH fluorescence (FDH is formaldehyde dehydrogenase); series mostly up to 57.7 µM
# How it was run: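 KDM5BΔAP (200 nM final) in 50 mM HEPES pH 7.5, 0.01% Tween-20 was preincubated 10 min at RT with compound over a concentration range. Substrate mix (H3K4me3 12.5 µM, α-KG 25 µM, Fe²⁺, ascorbate, NAD⁺, FDH) was added, and NADH fluorescence change over 30 min gave dose-response curves.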
# Potency means the concentration at half of the fitted maximal effect; tags describe the fitted curve by direction and shape.
# Chain of UniProt Q9UGL1 (Q9UGL1 whole entry, looked up): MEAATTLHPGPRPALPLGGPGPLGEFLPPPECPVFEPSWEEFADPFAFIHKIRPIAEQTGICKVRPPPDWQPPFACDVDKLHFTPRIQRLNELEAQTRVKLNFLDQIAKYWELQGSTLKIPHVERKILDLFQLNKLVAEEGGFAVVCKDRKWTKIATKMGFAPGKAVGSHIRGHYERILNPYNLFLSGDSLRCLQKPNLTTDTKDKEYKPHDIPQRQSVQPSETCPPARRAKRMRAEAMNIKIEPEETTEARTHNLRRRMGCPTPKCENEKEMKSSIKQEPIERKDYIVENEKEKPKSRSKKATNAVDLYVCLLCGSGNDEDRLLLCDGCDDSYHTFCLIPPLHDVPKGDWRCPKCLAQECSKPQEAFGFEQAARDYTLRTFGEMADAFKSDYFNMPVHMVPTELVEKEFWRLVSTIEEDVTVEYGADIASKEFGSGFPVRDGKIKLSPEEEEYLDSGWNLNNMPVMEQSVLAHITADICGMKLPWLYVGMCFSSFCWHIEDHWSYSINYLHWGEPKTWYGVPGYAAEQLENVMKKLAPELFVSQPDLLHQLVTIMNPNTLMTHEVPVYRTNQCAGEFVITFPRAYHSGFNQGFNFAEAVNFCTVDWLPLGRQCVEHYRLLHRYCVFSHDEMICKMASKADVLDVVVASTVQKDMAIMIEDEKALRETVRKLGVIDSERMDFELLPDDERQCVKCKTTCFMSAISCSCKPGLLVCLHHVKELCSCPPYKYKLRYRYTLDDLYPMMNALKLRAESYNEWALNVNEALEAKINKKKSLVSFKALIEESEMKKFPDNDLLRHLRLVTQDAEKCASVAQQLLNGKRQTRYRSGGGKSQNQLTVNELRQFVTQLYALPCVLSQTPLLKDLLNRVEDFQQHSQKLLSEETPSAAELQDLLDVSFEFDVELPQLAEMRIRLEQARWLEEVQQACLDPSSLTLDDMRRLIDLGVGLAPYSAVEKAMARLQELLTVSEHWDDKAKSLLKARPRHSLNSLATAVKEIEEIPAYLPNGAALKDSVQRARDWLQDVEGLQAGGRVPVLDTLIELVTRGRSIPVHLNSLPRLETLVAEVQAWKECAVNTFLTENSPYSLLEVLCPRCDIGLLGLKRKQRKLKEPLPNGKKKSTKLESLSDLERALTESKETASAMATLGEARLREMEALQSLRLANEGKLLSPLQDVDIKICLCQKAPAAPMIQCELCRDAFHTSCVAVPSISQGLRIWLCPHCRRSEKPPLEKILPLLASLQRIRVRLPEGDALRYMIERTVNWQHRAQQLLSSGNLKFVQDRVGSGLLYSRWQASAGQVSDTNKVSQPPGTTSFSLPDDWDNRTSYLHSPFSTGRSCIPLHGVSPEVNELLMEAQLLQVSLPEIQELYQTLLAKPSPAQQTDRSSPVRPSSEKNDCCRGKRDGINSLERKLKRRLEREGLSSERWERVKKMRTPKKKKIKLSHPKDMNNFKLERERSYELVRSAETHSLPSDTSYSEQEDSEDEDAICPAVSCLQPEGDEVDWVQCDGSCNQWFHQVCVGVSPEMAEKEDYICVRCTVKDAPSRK
row,SMILES,Potency
1,O=C(c1ccccc1-c1ncc(-c2ccc(F)cc2)o1)N1CCCC1,"inconclusive: 22.4 µM [inhibitor, partial curve, poor fit]"
2,COc1ccc(-c2ccc3nnc(CNC(=O)c4ccoc4)n3n2)cc1,active: 31.6 µM
3,CN(C)c1ccc(/C=N/NC(=O)c2ccc3c(c2)OCO3)cc1,"inconclusive: 39.8 µM [inhibitor, single point]"
4,CCc1ccccc1N1CC(c2nc3ccccc3n2CCCCOc2ccccc2)CC1=O (stereo unspecified),"inconclusive: 15.8 µM [inhibitor, partial curve, poor fit]"
5,FC(F)(F)c1ccc(C=Nc2cccc3ccccc23)cc1,"inconclusive: 22.4 µM [inhibitor, partial curve, poor fit]"
6,Cn1c(C(=O)N2CCN(c3ccccn3)CC2)nc2nc(-c3ccccc3)c(Cl)cc21,active: 35.5 µM
7,COC(=O)c1cccc(-n2c(CCC(=O)O)ccc2-c2cccs2)c1,"inconclusive: 17.8 µM [inhibitor, partial curve, poor fit]"
8,O=C(NC1CCCCCC1)C1CCCN(C(=O)Cc2c[nH]c3ccccc23)C1 (stereo unspecified),inactive
9,COc1ccc(Cn2c(C(=O)O)c(CNCc3ccc(C)o3)c3ccc(C)cc32)cc1,"inconclusive: 39.8 µM [inhibitor, single point]"
10,O=C(NC12CC3CC(CC(C3)C1)C2)c1ccc(-c2nc3ccccc3s2)s1,"inconclusive: 2 µM [inhibitor, full curve, poor fit]"
11,CN1c2cc(C(=O)N3CCOCC3)ccc2OCC1CC(=O)NC(CO)CO (stereo unspecified),inactive
12,O=C(Nc1cc(=O)[nH]c2nc(C(F)(F)F)nn12)c1ccccc1F,inactive
13,C[C@H](C(=O)N1CCCC1)C1CC[C@@]2(C)Cc3sc(-c4ccccc4)nc3[C@@H](C)[C@@H]2[C@H]1O (stereo partly specified),active: 31.6 µM
14,CCOC(=O)c1c(-c2ccccc2)oc2ccc(N(C(C)=O)S(=O)(=O)c3ccc(CC)cc3)cc12,"inconclusive: 28.2 µM [inhibitor, partial curve, poor fit]"
15,COC(=O)c1ccccc1OS(=O)(=O)c1ccc2c(c1)CCC2,inactive
16,Cc1ccc(C(=O)NCC(C)C)cc1,inactive
17,COc1cccc(CNC(=O)C(=O)c2c[nH]c3ccccc23)c1,inactive
18,COc1ccc(-c2nc3cc(C)ccc3cc2CN2CCC(NC(C)=O)C2)cc1 (stereo unspecified),active: 20 µM
19,COC(=O)C1=C(C)N=C2SC=C(CC(=O)N3CCCC3)N2C1c1cccc(OC)c1OC (stereo unspecified),"inconclusive: 28.2 µM [inhibitor, single point]"
20,O=C(NC[C@H]1O[C@@H](CC(=O)N2CCN(c3ccccn3)CC2)[C@H](O)[C@@H]1O)Nc1cccc(F)c1,"inconclusive: 31.6 µM [inhibitor, single point]"
21,Cc1ccccc1-c1noc(CSc2nnc(C3CC3)n2-c2ccccc2)n1,inactive
22,CCn1c(=O)cc(SCC(=O)NCc2ccc(OC)cc2OC)c2ccccc21,"inconclusive: 39.8 µM [inhibitor, single point]"

row,SMILES,Potency
1,Cc1ccc2nc(COc3ccccc3C(=O)O)cn2c1,"inconclusive: 22.4 µM [inhibitor, partial curve, poor fit]"
2,O=C(Nc1ccccc1)Nc1ccc([C@H]2OCC(=O)N(Cc3ccc(F)cc3)[C@@H]2CO)cc1,inactive
3,Cc1cccc(OCCc2noc(C3CCN(C(=O)CN4CCCCCC4)C3)n2)c1 (stereo unspecified),"inconclusive: 22.4 µM [inhibitor, single point]"
4,Cc1cccc(-c2nc(CCNC(=O)Cc3ccccc3)cs2)c1,"inconclusive: 15.8 µM [inhibitor, partial curve, poor fit]"
5,O=C(NCCNC(=O)c1cccc2cccnc12)c1cccc2cccnc12,inactive
6,Cc1ccc(/C=N/NC(=O)C(c2ccccc2)c2ccccc2)s1,inactive
7,O=C(c1cncc(Br)c1)N1CCC2(CC1)CC(O)CCO2 (stereo unspecified),inactive
8,O=C(CCc1ncc(-c2ccc(Cl)cc2)o1)Nc1ccc2ccccc2c1,inactive
9,COCc1cccc(C(=O)Nc2cccc(Oc3ccccc3)c2)c1,"inconclusive: 8.91 µM [inhibitor, partial curve, poor fit]"
10,COc1cccc2c1cc1c(=O)n(CC(=O)NCc3ccc(C)o3)nc(C)n12,"inconclusive: 15.8 µM [inhibitor, partial curve, poor fit]"
11,COc1ccc(C(=O)N2CCC3(CC2)NC(=O)N(c2ccccc2)N3)cc1F,inactive
12,O=C(C1=C(O)C(=O)N(CCCn2ccnc2)C1c1ccncc1)c1cc2ccccc2o1 (stereo unspecified),"inconclusive: 25.1 µM [inhibitor, single point]"
13,Cc1ccc(/C=C/C(=O)NCC(C)(C)CNC(=O)/C=C/c2ccc(C)o2)o1,"inconclusive: 12.6 µM [inhibitor, partial curve, poor fit]"
14,COCCn1ncc(N2CCC(NC(=O)c3ccc(OC)nc3)CC2)cc1=O,inactive
15,COc1cccc(CNC(=O)c2ccc(-c3nc(COc4ccccc4)c(C)o3)cc2)c1,"inconclusive: 35.5 µM [inhibitor, partial curve, poor fit]"
16,Cc1ccc(CCNC(=O)c2cc3c(s2)-c2c(C)cccc2OC3)cc1,"inconclusive: 15.8 µM [inhibitor, partial curve, poor fit]"
17,Cc1ccc(CNC(=O)N2CCc3c(nc4cc(-c5ccccc5Cl)[nH]n4c3=O)C2)cc1,"inconclusive: 31.6 µM [inhibitor, single point]"
18,CN1CCC[C@H]1c1nc(-c2ccc(F)cn2)no1,"inconclusive: 44.7 µM [inhibitor, partial curve, poor fit]"
19,Cc1ccc2nc(COc3ccccc3NC(=O)C(C)(C)C)cc(=O)n2c1,"inconclusive: 35.5 µM [inhibitor, partial curve, poor fit]"
20,O=C(Nc1ccc(F)cc1)C1CCN(c2cc(C(F)(F)F)ncn2)CC1,"inconclusive: 7.08 µM [inhibitor, single point]"
21,CCOc1ccc(NC(=O)c2c[nH]n3c(=O)cc(C4CCN(C(=O)OC(C)(C)C)CC4)nc23)cc1,"inconclusive: 20 µM [inhibitor, partial curve, poor fit]"
22,O=C(c1ccc(Cl)cc1Cl)N1CCC(c2nc3ccccc3o2)CC1,inactive

row,SMILES,Potency
1,CCC(C)NC(=O)Cn1c(-c2ccc(F)cc2)nc(C)cc1=O (stereo unspecified),inactive
2,Cc1nn(-c2ccc(Cl)nn2)c2c1C(c1ccc(OCC(N)=O)cc1)CC(=O)N2 (stereo unspecified),inactive
3,CCCc1noc(-c2cccn3c(CNC(=O)Cc4cccc(OC)c4)nnc23)n1,inactive
4,CC(C)N(C)Cc1ccc(-c2nc(-c3cccnc3)cc(=O)[nH]2)cc1,inactive
5,Cc1nn(-c2ccc(F)cc2)c(-n2cccc2)c1C(=O)NCCc1ccc(Cl)cc1,"inconclusive: 3.16 µM [inhibitor, partial curve, poor fit]"
6,CN(C)c1ccc(C(=O)N[C@H]2CO[C@H]3[C@@H]2OC[C@@H]3Nc2nccc(-c3cccs3)n2)cc1,"inconclusive: 31.6 µM [inhibitor, single point]"
7,C[C@]1(CO)[C@H]2Cc3sc(NC(=O)c4c(F)cccc4F)nc3[C@@H](CC(=O)NCCN3CCOCC3)[C@]2(C)CC[C@H]1O,inactive
8,CCOc1ccc(/C(O)=C2\C(=O)C(=O)N(Cc3ccco3)C2c2ccccc2)cc1Cl (stereo unspecified),inactive
9,COc1ccc(C(=O)N[C@H]2CO[C@H]3[C@@H]2OC[C@@H]3n2nnnc2Oc2ccc3c(c2)OCO3)cc1,active: 35.5 µM
10,O=Cc1ccc(N2CCN([S+](=O)([O-])C3CC3)CC2=O)cc1,"inconclusive: 89.1 µM [inhibitor, partial curve]"
11,CC[N+](CC)(CC)CCCOC(=O)C1(c2ccccc2)CCCC1,inactive
12,COc1cccc(-c2n[nH]c3c2CC(=O)N(CC2CCOCC2)C3)c1OC,"inconclusive: 11.2 µM [inhibitor, partial curve, poor fit]"
13,CCOc1ccccc1CNC(=O)C1CCN(c2nnc(-n3c(C)ccc3C)s2)CC1,"inconclusive: 14.1 µM [inhibitor, partial curve, poor fit]"
14,COc1ccc2sc(N(Cc3cccnc3)C(=O)C3CCCCC3)nc2c1,"inconclusive: 5.01 µM [inhibitor, partial curve, poor fit]"
15,Cc1cccc(NC(=O)Cc2c(C)nc3nc(-c4cccs4)nn3c2C)c1,"inconclusive: 20 µM [inhibitor, partial curve, poor fit]"
16,COc1ccc2c(C)c(CCC(=O)NCCCO)c(=O)oc2c1,"inconclusive: 25.1 µM [inhibitor, partial curve, poor fit]"
17,COc1cccc(CN2CCC3(CC2)CC(O)CCO3)n1 (stereo unspecified),inactive
18,CC(=O)Nc1ccc(S(=O)(=O)N2C[C@@H]3C[C@H](C2)c2c(-c4ccc(OC(F)(F)F)cc4)ccc(=O)n2C3)cc1,"inconclusive: 25.1 µM [inhibitor, partial curve, poor fit]"
19,CCOc1c(Br)cc(/C=C/C(=O)c2ccc(OC)c(OC)c2)cc1OC,"inconclusive: 28.2 µM [inhibitor, partial curve, poor fit]"
20,CCOC(=O)c1sc2nc(C)nc(NCc3ccc(F)cc3)c2c1C,"inconclusive: 22.4 µM [inhibitor, partial curve, poor fit]"
21,CCOc1cccc2c1N[C@@H](c1ccc(C(=O)O)cc1)[C@H]1CC=C[C@@H]21,"inconclusive: 22.4 µM [inhibitor, partial curve, poor fit]"
22,Cc1cccc(NS(=O)(=O)c2ccc3[nH]c4c(c3c2)CCCCCC4)c1,"inconclusive: 10 µM [inhibitor, partial curve, poor fit]"
